Test results reported in PubChem BioAssay AID360 (National Center for Advancing Translational Sciences (NCATS), 2006).
Screen size: about 48,000 compounds; about 550 (1.1%) were called active. Not shown: some 4% with an inconclusive outcome. Cut-off read from the data, not from the text of the source: active = potency below about 15 µM; inconclusive = mostly about 16 µM to 33 µM; inactive = weaker than that. The list shows a part of the results.

What follows are compounds tested against Lysosomal acid glucosylceramidase (Homo sapiens) (UniProt P04062) (assay: Glucocerebrosidase). Details: purified enzyme, resorufin glucoside fluorescence (screen aimed at inhibitors), 20 min.
Sequence of UniProt P04062 (P04062 whole entry, looked up): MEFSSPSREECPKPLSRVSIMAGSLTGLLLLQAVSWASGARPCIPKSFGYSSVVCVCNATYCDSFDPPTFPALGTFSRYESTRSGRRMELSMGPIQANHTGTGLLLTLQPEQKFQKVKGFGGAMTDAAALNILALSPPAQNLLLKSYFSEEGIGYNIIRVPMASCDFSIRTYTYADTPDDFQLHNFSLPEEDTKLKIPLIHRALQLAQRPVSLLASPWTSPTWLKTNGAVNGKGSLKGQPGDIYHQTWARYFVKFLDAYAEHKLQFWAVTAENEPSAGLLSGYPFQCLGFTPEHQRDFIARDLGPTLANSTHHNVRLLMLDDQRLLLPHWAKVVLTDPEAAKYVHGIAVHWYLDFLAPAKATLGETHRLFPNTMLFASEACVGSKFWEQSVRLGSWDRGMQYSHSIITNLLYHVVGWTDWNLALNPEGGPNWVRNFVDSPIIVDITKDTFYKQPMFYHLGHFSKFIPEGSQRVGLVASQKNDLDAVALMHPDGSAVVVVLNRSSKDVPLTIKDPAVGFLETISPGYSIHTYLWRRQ
Procedure, shortened: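 Wild-type enzyme at 0.2 nM final in 50mM citric acid/KH2PO4, 10mM sodium taurocholate, 0.01% tween-20, pH 5.9, with resorufin beta-D-glucopyranoside at 30 uM final. Compounds titrated, 20 min at RT, red fluorescence read; AC50 from titration.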
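Note: the screen sought inhibitors.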
Potency is the fitted concentration of half-maximal effect.

Potency, inactive:
CCC(=O)N1CCc2cc(S(=O)(=O)NC(C(=O)Nc3cccc(C)n3)C(C)C)ccc21 (centres undefined) > 76.9 µM
CCOc1ccc(Cl)cc1S(=O)(=O)N1CCCC1 > 76.9 µM
Cc1nc(C)c(C(=O)NCc2ccc(Cl)cc2)o1 > 76.9 µM
COC(=O)c1ccc(-c2nc3ccccc3o2)cc1 > 76.9 µM
Cc1noc(C)c1CSc1nnc(C)c(=O)[nH]1 > 76.9 µM
Nc1nnc(-c2cn(-c3ccccc3)nc2-c2ccccc2)o1 > 76.9 µM
CC(C)c1ccc(O)c(NC(=O)c2cncc(Br)c2)c1 > 76.9 µM
CCOC(=O)CSC1=C(C#N)C(c2ccccc2F)C(C(C)=O)=C(C)N1 (centres undefined)
COCCn1c(Sc2ccc(C)cc2)nc2c1c(=O)[nH]c(=O)n2C > 76.9 µM
COC(=O)c1c(NC(=O)C2CC=CCC2C(=O)O)sc(C(N)=O)c1C (centres undefined) > 76.9 µM
CCOC(=O)CC(=O)Nc1nnc(CC(C)C)s1 > 76.9 µM
Nn1c(COc2cccc(Br)c2)nnc1SCC(=O)N1CCc2ccccc2C1 > 76.9 µM
CSCC[C@H](NC(=O)NCc1ccccc1F)C(=O)O > 76.9 µM
O=C(CSc1nnc(CNC(=O)c2cccs2)o1)c1ccc(Cl)cc1 > 76.9 µM
COc1ccc(C)cc1NC(=O)C1CC(=O)OC12CCCCC2 (centres undefined) > 76.9 µM
CCOC(=O)c1cccc(NC(=O)CSc2nnc(-c3ccncc3)n2CCCOC)c1 > 76.9 µM
CCn1c(SCC(=O)Nc2ccc3c(c2)OCO3)nc2c1c(=O)n(C)c(=O)n2C > 76.9 µM
CC(=O)Nc1nc(CC(C)C)cc(-c2ccco2)c1C#N > 76.9 µM
Cc1ccc2cc3c(NC(=O)CC(C)C)nn(C)c3nc2c1 > 76.9 µM
CCC(=O)N1CCN(c2ccc(Cl)cc2NC(=O)Cc2ccccc2)CC1 > 76.9 µM
O=C1OCCC1Sc1ncnc2sc3c(c12)CCC3 (centres undefined) > 76.9 µM
CCN(CC)S(=O)(=O)c1ccc2[nH]cc(C(=O)NCCN3CCCCC3C)c(=O)c2c1 (centres undefined) > 76.9 µM
Cc1nc2ccc(S(=O)(=O)NCC(=O)NCCN3CCCCCC3)cc2s1 > 76.9 µM
COc1ccc(Cc2nnc(SCC(=O)c3ccccc3)o2)cc1 > 76.9 µM
CCCCSc1nn[nH]n1 > 76.9 µM
COc1ccccc1-n1c(C)nnc1SCC(N)=O > 76.9 µM
Cc1cc(C)cc(CSc2nnc(C)c(=O)[nH]2)c1 > 76.9 µM
CCS(=O)(=O)N1CCC(C(=O)NCc2cccc(OC)c2)CC1 > 76.9 µM
CC1CCCN(C(=O)Cn2nnc(-c3cccnc3)n2)C1 (centres undefined) > 76.9 µM
CCOC(=O)c1ccccc1NS(=O)(=O)c1ccccc1 > 76.9 µM
COC(=O)Cc1c(C)nc2nc(-c3ccco3)[nH]n2c1=O > 76.9 µM
O=C(CCN1c2ccccc2Sc2ccccc21)OCc1nnc(-c2ccccc2)o1 > 76.9 µM
COc1cccc(C(=O)NC2(C(F)(F)F)N=C3SCCN3C2=O)c1 (centres undefined) > 76.9 µM
CCCn1c(N2CCN(CC(=O)Nc3ccc4c(c3)OCCO4)CC2)nc2ccccc21 > 76.9 µM
CC(NC(=O)OCc1ccccc1)C(=O)NCC1CCCO1 (centres undefined) > 76.9 µM
COc1ccc(-c2nnn(CC(=O)c3ccccc3)n2)cc1OC > 76.9 µM
COc1ccc(C(c2nnnn2CCc2ccccc2)N2CCN(C3CCCC3)CC2)cc1 (centres undefined)
COc1ccc(CCNC(=O)C2CCN(S(C)(=O)=O)CC2)cc1OC > 76.9 µM
Cc1cc(C)n(-c2ccc(Cl)c(C(=O)OCC(=O)N3CCCCC3C)n2)n1 (centres undefined) > 76.9 µM
COC(=O)c1[nH]c2ccccc2c1NS(=O)(=O)c1ccc(OC)cc1OC > 76.9 µM
COc1ccc(N2CCN(C(=O)CN3C(=O)C4CC=CCC4C3=O)CC2)cc1 (centres undefined) > 76.9 µM
Cc1noc(C)c1COC(=O)c1ccc2ccccc2n1 > 76.9 µM
CC(=O)C1C(c2ccccc2OC(F)F)NC(=O)NC1(O)C(F)(F)F (centres undefined) > 76.9 µM
N/C(=N\O)c1ccc(NC(=O)c2cccs2)cc1
CN1C(=O)N(C)C2C1N(C)S(=O)(=O)N2C (centres undefined) > 76.9 µM
Cc1ccc(C(O)c2cccnc2)o1 (centres undefined) > 76.9 µM
O=c1cc(O)c2c(=O)[nH]c(=O)n(-c3ccccc3)c2[nH]1 > 76.9 µM
CS(=O)(=O)N(CC(=O)N1CCOCC1)c1ccc2c(c1)OCO2 > 76.9 µM
c1ccc(Cn2ncc3c(NCc4ccco4)ncnc32)cc1 > 76.9 µM
COc1ccccc1-n1cnc2cc(NC(C)=O)ccc21 > 76.9 µM
COc1ccc(C)cc1S(=O)(=O)N(CC(=O)O)c1ccc(C)cc1 > 76.9 µM
O=C(NC1CC1)c1ccc(S(=O)(=O)NC2CCCCCC2)cc1 > 76.9 µM
N=c1sccn1CC(=O)Nc1ccc(S(=O)(=O)N2CCOCC2)cc1 > 76.9 µM
COc1cccc(N(C(=O)c2ccn[nH]2)C2(C(=O)Nc3c(C)cccc3C)CCCCC2)c1 > 76.9 µM
COc1ccc(C(C)(C)C)cc1NC(=O)COC(=O)c1cnc(C)cn1 > 76.9 µM
Cc1ccc(C(=O)Nc2nc3ccc(S(C)(=O)=O)cc3s2)s1 > 76.9 µM
CCOC(=O)c1cc2sc(C)cc2n1CC(=O)Nc1ccc2c(c1)OCCO2 > 76.9 µM

Potency, active:
CCOC(=O)C1=C(c2ccccc2)NC(SCC(=O)Nc2ccc(C)cc2)=C(C#N)C1c1ccco1 (centres undefined) 11.9 µM
Oc1ccc(Nc2nc(N3CCCC3)c3ccccc3n2)cc1 8.85 µM
